# In all, about 350,000 compounds went through this assay and about 9,900 (2.8%) were called active. This list was built around the results that the source calls inconclusive (neither active nor inactive); the mix of calls is not that of the screen. The call rests on the fitted dose curve; in most records, active means well fitted activation curve with a large enough effect; inconclusive means small, poorly fitted or top-dose-only effect; inactive means no such curve, though single readings can be large or run the other way. No potency is given beside an inconclusive call; the fits are too rough.
# Assay: A quantitative high throughput screen for small molecules that induce DNA re-replication in MCF 10a normal breast cells. Further: nearly all actives have a fitted effect of over 50% in size.
# Settings: MCF 10A DNA re-replication, Hoechst nuclear intensity, 48 h; series mostly up to 46.1 µM
# Potency means the concentration at half of the fitted maximal effect; tags describe the fitted curve by direction and shape.
row,Structure (SMILES),Potency
1,O=c1c2ccccc2ncn1-c1ccc(Cl)cc1Cl,inactive
2,CCC(=O)N1CCN(c2nc(C)nc3sc(C)c(C)c23)CC1,"inconclusive [activator, single point]"
3,O=C(COC(=O)c1ccccc1Oc1ccccc1)NCc1ccco1,"inconclusive [activator, single point]"
4,CCN1C(=O)[C@@H]2[C@@H](c3ccc(-c4ccc(Cl)c(Cl)c4)c(OC)c3)N3CCC[C@@]3(C(=O)OC)[C@@H]2C1=O,"inconclusive [activator, single point]"
5,C/C(=N\NC(=O)c1ccco1)c1cccc2ccccc12,"inconclusive [activator, single point]"
6,CC(C)n1nc(C(=O)Oc2cccc(Cl)c2Cl)c2ccccc2c1=O,"inconclusive [activator, full curve, poor fit]"
7,Cc1cc(C)nc(SCc2csc(-c3ccccc3)n2)n1,"inconclusive [activator, partial curve, poor fit]"
8,CCOC(=O)c1ccc(-n2c(CCC(=O)O)ccc2-c2cccs2)cc1,"inconclusive [activator, single point]"
9,CC1CC(C)CN(C(=O)CNC(=O)c2sc3ccccc3c2Cl)C1 (centres undefined),"inconclusive [activator, single point]"
10,C=C1CCN([C@@H](Cc2ccccc2)C(=O)NCc2ccc(Cl)c(Cl)c2)S(=O)(=O)c2ccccc21,"inconclusive [activator, single point]"
11,Cc1ccc(S(=O)(=O)c2nc(S(C)(=O)=O)sc2N2CCN(C)CC2)cc1,inactive
12,O=C(Nc1ccc(Cl)c(S(=O)(=O)N2CCOCC2)c1)c1ccc(OCC2CCCO2)cc1 (centres undefined),active: 18.4 µM
13,COc1ccc(/C=N/NC(=O)C2C(=O)NCC2c2ccccc2)c(OC)c1 (centres undefined),inactive
14,O=C(N[C@H](CO)[C@H](O)c1ccc([N+](=O)[O-])cc1)C(Cl)Cl,"inconclusive [activator, full curve, poor fit]"
15,O=C(Nc1ccccc1Cl)NN1CCCCCC1,"inconclusive [activator, single point]"
16,CCN(CC)c1ccc(S(=O)(=O)N2CCOCC2)cc1NC(=O)COC(=O)c1cccnc1SC,inactive
17,O=C(CCCC1=NS(=O)(=O)c2ccccc2N1)Nc1ccccc1,inactive
18,O=S(=O)(c1ccc(Oc2ccc(Cl)cc2)c(S(=O)(=O)N2CCCCC2)c1)N1CCCCC1,inactive
19,COc1cc(C(C[N+](=O)[O-])c2c(N)n(C)c(=O)n(C)c2=O)ccc1O (centres undefined),active: 18.4 µM
20,COc1ccc(C(CNC(=O)c2cccc(S(=O)(=O)N3CCc4ccccc43)c2)N(C)C)cc1 (centres undefined),"inconclusive [activator, partial curve, poor fit]"
21,Cc1ccc(-c2cc(=O)c3cc(F)ccc3[nH]2)cc1,"inconclusive [activator, single point]"
22,COc1ccc(S(=O)(=O)N2CCCC2)cc1Br,"inconclusive [activator, partial curve, poor fit]"

row,Structure (SMILES),Potency
1,CSC1=C(C#N)C(c2ccccc2Cl)C(C(=O)c2cccs2)C(O)(C(F)(F)F)N1 (centres undefined),"inconclusive [activator, full curve]"
2,CCNC(=S)Nc1ccc(Cl)c(C(F)(F)F)c1,"inconclusive [activator, partial curve, poor fit]"
3,CCOC(=O)C1CCCN(C(=O)CCNS(=O)(=O)c2cc(Br)cnc2N)C1 (centres undefined),inactive
4,COc1cc(C(=O)CSc2nncn2C)cc(OC)c1OC,"inconclusive [activator, single point]"
5,Cc1cc(N)n(-c2ccccn2)n1,inactive
6,CCn1c(C)cc(C(=O)COC(=O)c2cccnc2SC)c1C,inactive
7,CCCCOc1ccc(C(=O)NCC(=O)N2CC(C)CC(C)C2)cc1 (centres undefined),inactive
8,CCN(CC)CCNC(=O)c1ccc(NC(=O)Cc2cccc3ccccc23)cc1,"inconclusive [activator, single point]"
9,Cc1cc(C)nc(SCC(=O)Nc2ncc(Cc3cccc(Cl)c3)s2)n1,"inconclusive [activator, single point]"
10,CCN(CC)S(=O)(=O)c1cc(NC(=O)Cn2ncc(Cl)c(Cl)c2=O)ccc1C,"inconclusive [activator, partial curve]"
11,CCCn1c(=O)c(C(=O)NCc2ccccc2Cl)c(O)c2ccccc21,"inconclusive [activator, single point]"
12,Cn1c(NC(=O)CCc2ccccc2)cc(=O)n(C)c1=O,"inconclusive [activator, single point]"
13,Cn1c(=O)n(Cc2ccccc2)c(=O)c2c1nc1n2CCCN1CCc1ccccc1,"inconclusive [activator, single point]"
14,C=C(C)C1(O)OC(=O)C=C1OC (centres undefined),"inconclusive [activator, single point]"
15,CCCNC(=O)[C@H](Cc1c[nH]c2ccccc12)NC(=O)c1ccccc1Cl,inactive
16,Cc1cc(C)cc(N(CCC(=O)Nc2nnc(C3CC3)s2)S(=O)(=O)c2ccc(Cl)cc2)c1,"inconclusive [activator, partial curve, poor fit]"
17,CCCOc1ccc(C(=O)Nc2ccc(N3CCN(C(=O)c4ccco4)CC3)cc2)cc1,"inconclusive [activator, single point]"
18,O=C(/C=C/c1ccccc1)NNC(=O)c1cccc(Cl)c1,inactive
19,O=C(c1ccncc1)N1c2ccccc2Sc2ccccc21,"inconclusive [activator, single point]"
20,Cc1ccc(N=Cc2sc(O)c3ccccc23)cc1,"inconclusive [activator, single point]"
21,CC1CCCN(CCOc2ccc3ccccc3c2Br)C1 (centres undefined),active: 14.6 µM
22,COC(=O)/C=c1/s/c(=C(/C#N)C(=O)N2CCOCC2)n(-c2ccccc2)c1=O,"inconclusive [activator, single point]"

# — PubChem BioAssay AID624296 (National Center for Advancing Translational Sciences (NCATS), 2012)
